# In PubChem BioAssay AID1346428 (National Center for Advancing Translational Sciences (NCATS), 2018):
# Where “and” joins values, the source holds several entries; their conditions need not be identical. Equal entries are not always repeated. Among all 48,000 compounds or so, about 1,200 (2.5%) were called active. Not shown: some 2% with an inconclusive outcome.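 How the source made its calls: active means activation of at least 60% and not above a set upper limit (about 1 call in 100 departs from these limits); inconclusive means activation of 40% to 60%, or above that upper limit; inactive means activation under 40%.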 The list shows a part of the results.
# Biological target: Probable G-protein coupled receptor 32 (Homo sapiens) (UniProt O75388)
# Chain of UniProt O75388 (O75388 whole entry, looked up): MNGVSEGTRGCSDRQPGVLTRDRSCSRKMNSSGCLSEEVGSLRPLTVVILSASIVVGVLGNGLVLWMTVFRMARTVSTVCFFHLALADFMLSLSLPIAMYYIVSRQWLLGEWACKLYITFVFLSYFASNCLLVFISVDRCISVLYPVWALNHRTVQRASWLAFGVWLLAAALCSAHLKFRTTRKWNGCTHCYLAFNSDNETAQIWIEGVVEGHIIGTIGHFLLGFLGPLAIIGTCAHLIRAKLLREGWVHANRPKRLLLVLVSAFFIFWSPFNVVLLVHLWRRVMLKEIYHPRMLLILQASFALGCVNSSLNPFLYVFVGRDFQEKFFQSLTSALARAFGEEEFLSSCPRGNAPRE
# Assay: qHTS for Agonists of Human Resolvin D1 Receptor DRV1; further: 0% is about no effect
# Conditions: CHO-K1 GPR32 beta-arrestin PathHunter luminescence, 90 min; at 76.9 µM; hits give high values; zero percent set by DMSO-only wells
# Method in brief: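 Beta-arrestin recruitment read-out: luminescence from complemented beta-Gal in CHO-K1 GPR32 PathHunter cells, measured 1 h after detection reagent at ambient temperature following 90 min compound exposure at 37 °C; DMSO served as basal (EC0) control.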
row,SMILES,activation
1,O=[N+]([O-])c1ccc(/C=N\O)o1,inactive: 22.5%
2,Cc1ccc(NC(=O)c2sc3nc4c(cc3c2N)CN(Cc2ccccc2)CC4)cc1,active: 116%
3,Cc1oc2ncn(C)c(=O)c2c1C(=O)N1CCN(c2ccccc2F)CC1,inactive: -7.61%
4,CCc1nn(Cc2ccc(Cl)cc2)c(=O)c2cc3cc(C)ccc3n12,inactive: -24.4%
5,Cc1cccc(NS(=O)(=O)c2ccc3c(c2)C(C)(C)C(=O)N3C)c1,inactive: -2.65%
6,Fc1ccc(-c2noc3ncnc(NCCCN4CCN(c5ccccc5)CC4)c23)cc1,inactive: 27.7%
7,Cc1ccc2c(=O)cc(C(=O)Nc3sc4c(c3C(=O)NCc3cccnc3)CCCC4)oc2c1C,inactive: -0.584%
8,COc1ccc(Cn2ccc3nc(C)c(C(=O)NCc4ccc(F)cc4)cc3c2=O)cc1,active: 62.5%
9,O=c1oc2c(CN3CCN(CCO)CC3)c(O)ccc2cc1-c1ccccc1,inactive: 9.58%
10,COc1ccc(C(=O)NCC(c2ccc(N(C)C)cc2)N2CCc3ccccc32)c(OC)c1 (stereo unspecified),inactive: -31.2%
11,COc1cccc(NC(=O)CC2NCCNC2=O)c1 (stereo unspecified),inactive: -9.37%
12,Cc1ccc(NC(=O)CCc2c(C)nc3cc(-c4ccccc4)nn3c2C)cc1F,inactive: 16.9%
13,COc1ccc(-c2nc3c(C#N)c[nH]n3c2NC2CCCC2)c(OC)c1,inactive: -24%
14,COc1ccc(S(=O)(=O)NCC(c2ccco2)N2CCOCC2)cc1OC (stereo unspecified),inactive: 2.65%
15,CCc1cc(C(=O)Nc2cnn(Cc3ccccc3C)c2)no1,inactive: 18.3%
16,COc1ccc(CNC(=O)C2CCN(c3nc4ccccc4[nH]3)CC2)cc1OC,inactive: -8.99%
17,O=C(Nc1sc2c(c1C(=O)NCC1CCCO1)CCC2)c1cc(=O)c2ccccc2o1 (stereo unspecified),inactive: -11.6%
18,CCCCCNC(=O)CCCCCn1c(=O)[nH]c2ccsc2c1=O,inactive: 8.89%
19,COCCCNc1oc(-c2ccc(COc3ccc(Cl)cc3)o2)nc1C#N,inactive: -4.32%
20,COc1ccc(Cn2c(=O)c3oc4ccccc4c3n(Cc3ccc(Cl)cc3)c2=O)cc1,inactive: -1.65%
21,OCCN1C[C@H](O)[C@@H](O)[C@H](O)[C@H]1CO,inactive: -92.7%

row,SMILES,activation
1,CCOc1ccc(C2CC(=O)Nc3c2c(=O)nc(SCc2ccccc2C)n3C)cc1OC (stereo unspecified),inactive: -14.6%
2,CCn1cc(C(=O)OCC(=O)Nc2cccc(C(C)=O)c2)c(=O)c2ccc(C)nc21,inactive: 11%
3,CCOC(=O)c1c(S(=O)(=O)N2CCCC(C(=O)Nc3cccc(C)n3)C2)c(C)n(C)c1C (stereo unspecified),inactive: 8.02%
4,Cc1cccn2c(=O)c3cc(C(=O)NC(C)c4ccccc4)c(=N)n(CCCO)c3nc12 (stereo unspecified),inactive: -10.5%
5,Cc1ccc2c(=O)cc(C(=O)Nc3cccc(C(F)(F)F)c3)oc2c1C,inactive: -13%
6,CCOC(=O)c1c(C)[nH]c(C)c1S(=O)(=O)N1CCCC(C(=O)N2CCN(c3ccccc3)CC2)C1 (stereo unspecified),inactive: 12.6%
7,CCOCCc1nn2c(=O)cc(COC(=O)C3CCCCC3)nc2s1,inactive: -5.04%
8,COC(=O)c1ccc(OCC2c3cc(OC)c(OC)cc3CCN2C(=O)c2ccc(F)cc2)cc1 (stereo unspecified),inactive: 21.5%
9,O=C(Cn1nnc(-c2ccccc2Cl)n1)Nc1ccc(Br)cc1,inactive: 11%
10,Cc1ccc(NC(=O)CSc2nnc3scc(-c4ccccc4)n23)cc1,inactive: 13.4%
11,CCOc1ccccc1CNC(=O)C1CCN(S(=O)(=O)c2ccc3c(ccn3C)c2)CC1,inactive: 1.93%
12,O=C(Cn1ncc2c([nH]c3ccccc32)c1=O)NCC1CCN(Cc2ccc(F)cc2)CC1,inactive: -3.23%
13,COc1ccc(CN2CCN(c3ncnc4sc5c(c34)CC(C)CC5)CC2)cc1F (stereo unspecified),inactive: 1.5%
14,CCOc1ccc(C(=O)NCCS(=O)(=O)N2CCN(c3ccccc3F)CC2)cc1OCC,inactive: -7.47%
15,Cc1cc(Cl)ccc1NC(=O)CN(c1ccccc1Br)S(C)(=O)=O,inactive: 30.9%
16,COc1ccccc1N1CCN(CCCNC(=O)c2cnn(-c3ccccc3)c2C2CCN(C(=O)OC(C)(C)C)CC2)CC1,inactive: -17%
17,C[C@H]1O[C@@H](O[C@H]2CC[C@@]3(C)[C@H](CC[C@@H]4[C@@H]3C[C@@H](O)[C@]3(C)[C@@H](C5=CC(=O)OC5)CC[C@]43O)C2)C[C@H](O)[C@@H]1O[C@H]1C[C@H](O)[C@H](O[C@H]2C[C@H](O)[C@H](O[C@@H]3O[C@H](CO)[C@@H](O)[C@H](O)[C@H]3O)[C@@H](C)O2)[C@@H](C)O1,active: 76.2%
18,CCc1ccc(-n2c(Cc3ccccc3)nnc2SCc2nc(-c3cccs3)no2)cc1,inactive: -23.7%
19,Cc1ccc(C)n1-c1nnc(N2CCCC(C(=O)NCc3cccc(Cl)c3)C2)s1 (stereo unspecified),inactive: -28.5%
20,Cc1nc2ccn(Cc3cccs3)c(=O)c2cc1C(=O)Nc1ccccc1,inactive: -17.9%
21,CCn1cc(S(=O)(=O)c2cccc(Cl)c2)c(=O)c2cc(F)c(N3CCN(c4ccccc4)CC3)cc21,inactive: -12.6%

row,SMILES,activation
1,CC(C)C(=O)Nc1ccc([N+](=O)[O-])c(C(F)(F)F)c1,inactive: -28.6% and inactive: 2.72%
2,Cc1ccc(/C=C/c2onc(C)c2S(=O)(=O)N2CCC(C(=O)NCC(C)c3ccccc3)CC2)cc1 (stereo unspecified),inactive: 3.63%
3,CC1=C(C(=O)NCc2ccc(Cl)cc2)C2(CCCCC2)OC1=O,inactive: -13.4%
4,O=C(NCCc1ccccc1)c1cc(Sc2cccc(Cl)c2)nc2ccccc12,inactive: 8.56%
5,Cc1ccc(Cl)cc1N1CCN(S(=O)(=O)c2ccc3c(c2)CCCN3C(=O)C2CCC2)CC1,inactive: -9.33%
6,CCCCCn1c(-c2ccc(OC)c(OC)c2)nc2ccccc21,inactive: 9.23%
7,COc1ccc(NS(=O)(=O)c2ccc3[nH]c4c(c3c2)CCCC4)cc1Cl,active: 89.6%
8,Cc1ccc(CN2C(=O)c3oc4ccc(C)cc4c(=O)c3C2c2ccc(O)cc2)cc1 (stereo unspecified),inactive: -4.06%
9,COc1cc(OC)c(NC(=O)Cn2c(=O)oc3cc(S(=O)(=O)N4CCCC4)ccc32)cc1Cl,inactive: 26.2%
10,CCN(CC)C(=O)Cn1cc(SCC(=O)Nc2ccccc2C)c2ccccc21,inactive: -16.4%
11,CC(=O)Oc1cc2c(s1)CCN(C(C(=O)C1CC1)c1ccccc1F)C2 (stereo unspecified),inactive: -10.8%
12,CCc1ccc(-n2c(=O)c3cccnc3n2CC(=O)Nc2cc(F)ccc2F)cc1,inactive: -24.2%
13,CCOC(=O)N1CCc2c(sc(NCc3cc(OC)c(OC)cc3OC)c2C(=O)Nc2ccc(OCC)cc2)C1,inactive: -5.92%
14,CCN1CCN(c2ncc3c(n2)CCN(Cc2ccc(OC(C)C)cc2)C3)CC1,inactive: -19.4%
15,CC(O)CCCCn1c(=O)c2c(ncn2C)n(C)c1=O (stereo unspecified),inactive: -1.67%
16,CCOC(=O)c1ccc(-c2ccc(/C=C(\C#N)C(=O)Nc3ccc(OCC)cc3)o2)cc1,inactive: -11.5%
17,CCOC(=O)c1cccc(NC(=O)NCc2ccc3c(c2)CCN3C(=O)c2ccccc2)c1,inactive: -15.7%
18,Cc1cccc(-c2nc(SCCCOc3ccc(Cl)c(C)c3)n3[nH]c(=O)cc3n2)c1,inactive: -41.3%
19,CCc1ccccc1NC(=O)C(=O)NCC(c1cccnc1)N1CCN(c2ccccc2F)CC1 (stereo unspecified),inactive: -7.08%
20,COC(=O)c1nnn(-c2cccc(C)c2)c1C(=O)OC,inactive: 1.74%
21,COc1ccc(C2(CNC(=O)C(=O)Nc3ccc(F)cc3)CCCC2)cc1OC,inactive: -3.18%

row,SMILES,activation
1,COc1ccc(Cl)cc1-n1nnc(-c2nsc(NC(=O)c3ccccc3Cl)n2)c1C,inactive: 3.38%
2,Cc1ccc(NC(=O)C2CCC(CNS(=O)(=O)c3csc(C(N)=O)c3)CC2)cc1Cl (stereo unspecified),inactive: 2.24%
3,CCCSc1nc2sc3c(c2c(=O)n1Cc1ccccc1)CC(C)(CC)OC3 (stereo unspecified),inactive: -20.4%
4,Cc1ccc(NS(=O)(=O)c2ccc3c(c2)CCCN3C(=O)C2CCC2)c(C)c1,inactive: -17.7%
5,CCc1nn(Cc2cc(C)ccc2C)c(=O)c2cc3cc(C)ccc3n12,inactive: -11.1%
6,CCOC(=O)c1c(S(=O)(=O)NCC(=O)Nc2cc(C)ccc2C)c(C)n(C)c1C,inactive: -5.11%
7,CCc1nn2c(=O)cc(COC(=O)c3ccco3)nc2s1,inactive: -45.8%
8,COc1ccc(N2CC(NC(=O)c3ccc(Br)o3)CC2=O)cc1 (stereo unspecified),inactive: -5.23%
9,COc1ccc(N2CCN(C(=O)c3cc4c(s3)-c3ccccc3OC4)CC2)cc1,inactive: -2.52%
10,CCOC(=O)C1CCN(S(=O)(=O)c2csc(C(N)=O)c2)CC1,inactive: 3.95%
11,Cc1ccc(-c2cn3c(n2)sc2cc(C(=O)NC(C)C45CC6CC(CC(C6)C4)C5)ccc23)cc1 (stereo unspecified),inactive: 1.47%
12,COc1ccc(CCCc2nnc(SCC(=O)Nc3ccc(OC)cc3)o2)cc1,inactive: -17.3%
13,O=C(CSc1nnc(NC(=O)Nc2ccccc2)s1)Nc1cccc(F)c1,inactive: 32.6%
14,Cc1ccc2c(=O)c(C(=O)c3cccc(Cl)c3)cn(CC(=O)Nc3ccc4c(c3)OCCO4)c2n1,inactive: -3.88%
15,Cn1cc(S(=O)(=O)c2cccc(Cl)c2)c(=O)c2cc(F)c(N3CCN(c4ccccc4)CC3)cc21,inactive: -11%
16,O=C(Nc1cc(F)ccc1F)N1CCC(CN2CCCC2)CC1,inactive: -16.7%
17,CN(C)[C@@H]1C(=O)C(C(N)=O)=C(O)[C@@]2(O)C(=O)C3=C(O)c4c(O)ccc(Cl)c4[C@@H](O)[C@H]3C[C@@H]12,inactive: -17.1% and inactive: -45%
18,CN1C(=O)Cc2cc(S(=O)(=O)CCC(=O)Nc3ccc(F)c(Cl)c3)ccc21,inactive: 0%
